This is an account of results in PubChem BioAssay AID1240 (Sanford-Burnham Center for Chemical Genomics, 2008).

The whole screen tested about 50,000 compounds, of which about 800 (1.6%) showed an effect of 50% or more. The list shows a part of the results.

This test concerns the target Bcl-2-like protein 10 (Homo sapiens) (UniProt Q9HD36). Nature of the test: TR3 peptide-Bcl-B binding displacers, biochemical primary FP assay, phenotype converters (AID 1240).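 Further: 0% = Bcl-B with tracer peptide and DMSO and 100% = tracer peptide lacking Bcl-B.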 The settings on record: GST-Bcl-B / FITC-TR3 peptide fluorescence polarization; stronger effect = higher value; compound at 3.75 mg/L. For orientation: In fluorescence polarisation assays a small probe gives low polarisation when free and higher when bound to something large.
Chain of UniProt Q9HD36 (Q9HD36 whole entry, looked up): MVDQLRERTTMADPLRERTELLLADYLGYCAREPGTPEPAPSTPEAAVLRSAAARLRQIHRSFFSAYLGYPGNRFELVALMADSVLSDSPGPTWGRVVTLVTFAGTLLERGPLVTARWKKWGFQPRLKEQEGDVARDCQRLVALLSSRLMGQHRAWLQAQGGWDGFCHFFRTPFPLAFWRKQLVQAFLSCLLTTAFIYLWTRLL
In the case of `COc1ccc(/C=C(\NC(=O)c2ccccc2)C(=O)N/N=C/c2ccccn2)cc1`, the displacement was -13.2%.
Regarding `CCOC(=O)C(CCCCOc1cccc(OC)c1)C(=O)OCC`, the displacement is -10%.
As to `O=C(CC1S/C(=N\N=C\c2cccs2)NC1=O)Nc1ccc(Cl)cc1Cl` (stereo not given), the displacement was 9.6%.
For `COc1cc(C(=O)N/C(=C/c2cccc([N+](=O)[O-])c2)C(=O)Nc2ccc(C)cc2)cc(OC)c1OC` the value was -4%; for `COc1cccc(/C(C)=N/NC(=O)C2CC2)c1`, 0.4%; for `COc1ccc(/C=C2\C(=O)N(Cc3ccccc3)N=C2C)cc1`, 1.4%.
For the molecule `COc1ccc(C2NC(=O)NC(C)=C2C(=O)OCc2ccccc2)cc1OC` (stereo not given), the displacement is 3.1%.
As for `COc1ccc(-n2nnnc2C(Cl)(Cl)c2nnnn2-c2ccc(OC)cc2)cc1`, the figure is 5.8%.
As for `O=C(NC(NC(=S)Nc1ccc(Cl)cc1Cl)C(Cl)(Cl)Cl)c1ccccc1F` (stereo not given), the displacement turned out to be 0.7%.
As for `O=C(O)c1ccc(N=C2SCC(=O)N2Cc2ccccc2)cc1`, the figure is -10%.
As for `Cc1c(C=Nc2ccc(Br)cc2)c(O)n(C)c(=O)c1C#N`, the figure is 12.4%.
With `Cc1c(NC(=O)COc2ccc(Cl)cc2Cl)cccc1[N+](=O)[O-]`, the displacement is -6%.
In the case of `CSC(=NSc1ccc([N+](=O)[O-])cc1)SC`, the displacement is -10.4%.
Turning to `COc1cc(CN2CCN(S(C)(=O)=O)CC2)cc(OC)c1OC`, the displacement came to 0%.
`Cc1ccccc1NC(=O)C(=O)NCc1cccnc1`: the displacement is 10.2%.
On to `COC(=O)CN1C(=O)/C(=C\c2cccc([N+](=O)[O-])c2)SC1=S`, for which the displacement worked out at 5.7%.
For `Cc1ccc(S(=O)(=O)CCc2nc3ccccc3o2)cc1` the value was -7.8%; for `O=C(c1cc(-c2cccs2)nc2ccccc12)N1CCN(c2ccccc2)CC1`, 2.2%.
For `Brc1ccc2ncnc(Nc3ccccc3)c2c1` the value was -5.8%; for `O=C1N=c2ccccc2=C1c1cc(-c2ccccc2)oc1O`, 1%.
As for `CCc1cc(C)cc(OCCOc2ccc([N+](=O)[O-])cc2/C=C2/SC(=S)N(C)C2=O)c1`, the figure is 20.5%; as for `Cc1cc(NNC(=O)c2ccccc2O)c2cccc(C)c2n1`, 1.8%.
Regarding `O=C(c1ccc(F)cc1)N1CCN(c2ccc(F)cc2)CC1`, the displacement turned out to be 6.5%.
As for `CN(C)/C=N/S(=O)(=O)c1ccccc1`, the displacement was found to be 5.6%.
For `COc1ccc(CCNC(=O)C(=O)N2CCCC2)cc1` the value was -1.5%; for `O=C(Nc1ccc(Cc2ccncc2)cc1)c1cccs1`, -2.9%; for `Cn1c2c(c(=O)n(C)c1=O)C(c1ccc(OC(=O)/C=C/c3ccc([N+](=O)[O-])cc3)cc1)C1=C(N2)c2ccccc2C1=O` (stereo not given), 13.4%.
On to `CCN(CC)c1ccc(NC(=O)/C=C\C(=O)O)cc1`, for which the displacement was determined as 18.6%.
For `CC(=O)/C=C/c1cccc[n+]1C`, the displacement was -4.4%.
Turning to `O=C(Nc1ccc(Cl)c(Cl)c1)c1cc(Br)ccc1Cl`, the displacement was 13.8%.
Take `C/C=C/C=C(/NC(=O)c1ccccc1)C(=O)Nc1cccc(C)c1`: the displacement is -2.3%.
As for `CCCOc1ccc(/C=C2/C(=O)NN(c3ccccc3)C2=O)cc1OC`, the figure is 13%; as for `O=C(Nc1ccc2nn(-c3ccc(F)cc3)nc2c1)c1ccc(Cl)c([N+](=O)[O-])c1`, 7.7%.
Turning to `COC(=O)c1ccc(N2C(=O)CC(N3CCC(O)CC3)C2=O)cc1` (stereo not given), the displacement is -6%.
As for `O=C(Nc1ccc2nc(SCc3ccccc3)sc2c1)c1ccccc1C(=O)N1CCOCC1`, the figure is -3.4%.
Regarding `CCOC(=O)c1c(NC(=O)Cc2ccccc2)sc2c1CCCCC2`, the displacement is 5.1%.
With `Cc1ccc(NC(=O)c2ccco2)cc1NC(=O)c1ccccc1`, the displacement was determined as 10.8%.
For `COC(=O)c1ccc(Cl)c(S(=O)(=O)N2CCOCC2)c1` the value was -6.1%; for `Cc1cc(Br)ccc1NC(=O)c1ccco1`, 15.8%; for `COc1ccc(N2C(=O)NC(=O)/C(=C\c3cc(C)n(-c4ccc(N5CCOCC5)cc4)c3C)C2=O)cc1`, 15.9%.
In the case of `COc1ccc(C=C2C(=O)c3ccccc3C2=O)c(O)c1`, the displacement was determined as 18.4%.
As for `COc1ccc(CCNC(=O)COc2ccc(C)cc2C)cc1`, the figure is 1%; as for `COc1cc(/C=C2/SC(=S)N(c3ccccc3)C2=O)ccc1OC(=O)c1ccc(Cl)cc1`, 11.8%.
As to `CC(=O)Nc1ccc(NS(=O)(=O)c2ccc(NC(C)=O)cc2)cc1`, the displacement is -5.4%.
As for `COc1ccc(/C=C/C(=O)Nc2ccc(N3CCCCC3)c(Cl)c2)cc1`, the displacement was -3.8%.
For `O=C1C2C3C=CC(C3=C3CCCC3)C2C(=O)N1Cc1ccccc1` (stereo not given) the value was -11.8%.
As to `CN1C(=O)/C(=C\C2(C)N3CC4(C)CN2CC(C)(C3)C4=O)c2ccccc21` (stereo not given), the displacement is -6.5%.
With `O=C(O)CCCCCN1C(=O)C(=O)/C(=C(/O)c2ccc(F)cc2)C1c1ccc(O)cc1` (stereo not given), the displacement was -7.8%.
As for `CC(=O)Nc1ccc(NC(=O)CN(c2ccc(C)cc2)S(C)(=O)=O)cc1`, the figure is 2.5%.
For `O=C(NCCc1ccc(F)cc1)C(=O)NC1CCCCC1` the value was 5%; for `O=C(CSc1nc(O)cc(=O)[nH]1)N1c2ccccc2CCc2ccccc21`, 12.1%; for `O=C(Nc1ccc2c(c1)Cc1ccccc1-2)c1cc2ccccc2o1`, 134%.
As to `CCOC(=O)C1=C(CC)NC2=C(C(=O)CCC2)C1c1cc2c(cc1[N+](=O)[O-])OCO2` (stereo not given), the displacement was 12.2%.
As for `O=C(CN(c1ccc(F)cc1)S(=O)(=O)c1ccccc1)N1CCCCCC1`, the figure is -6.7%; as for `CC(C)(C)c1cc(Br)ccc1OCC(=O)Nc1ccccc1C(F)(F)F`, 15.1%.
For `COC(=O)c1ccc(NC(=O)CCC2CCCCC2)cc1` the value was -5.7%; for `COC(=O)C1=C(C)NC(=O)CC1c1ccc(F)c(Br)c1` (stereo not given), 11.4%; for `O=C(Nc1ccccc1)c1cc(S(=O)(=O)NC2CCCCC2)ccc1Br`, -10.5%.
With `O=C1S/C(=C/c2ccccc2)C(=O)N1CC(=O)N1c2ccccc2Sc2ccc(Cl)cc21`, the displacement was found to be 13.1%.
For `O=C(NC(=S)Nc1ccc2oc(-c3ccccc3)nc2c1)c1ccccc1Cl`, the displacement amounted to 17.8%.
For `Cn1cnc([N+](=O)[O-])c1Sc1ncnc2c(C#N)c3n(c12)CCCCC3` the value was -9.8%; for `COc1ccc(OC)c(NC(=O)CN(c2ccc(C)cc2)S(=O)(=O)c2ccc(OC)c(OC)c2)c1`, 9.4%; for `N#Cc1c(N)nc2c(c1-c1ccc(F)cc1)CCCCCC2`, -5%.
As for `C/C(=N\N=C1\NC(=O)C(CC(=O)Nc2ccc(Cl)c(Cl)c2)S1)c1ccc(Cl)cc1` (stereo not given), the figure is -2.7%; as for `O=C(CC1OC(=O)c2ccccc21)c1ccc(I)cc1` (stereo not given), -21.4%.
For `CN(C)c1ccc(NC2=NC3(CCCCC3)N=C(N)N2)cc1` the value was 3.6%; for `N#Cc1c(N)n(-c2ccc(Br)cc2)c2nc3ccccc3nc12`, 11.9%; for `CCOc1c(C)cc2[nH]c(C)nc2c1C`, -18.2%.
With `COc1cc(Br)c(/C=C2\C(=O)N(c3ccc(S(N)(=O)=O)cc3)N=C2C)cc1OC`, the displacement stood at 3%.
For `O=C(N/N=C/c1cc([N+](=O)[O-])ccc1Cl)c1cc2ccccc2o1` the value was -3.2%.
As for `N/C(=N\OC(=O)COc1cccc2ccccc12)c1cccc([N+](=O)[O-])c1`, the figure is 12.6%.
For `COc1ccc(N2C(=O)/C(=C\c3ccc4ccccc4c3)SC2=S)cc1` the value was 3%.
In the case of `O=C(Oc1ccc(/C=N/NC(=O)C(O)c2ccccc2)cc1)c1ccccc1Cl` (stereo not given), the displacement came to 2.7%.
Take `O=C(Nc1cccc(Cl)c1)Nc1nnc(Cc2ccc(Cl)cc2)s1`: the displacement stood at 11.8%.
Regarding `CN1/C(=C\C(=O)Nc2ccc(Cl)cc2)c2ccccc2CC1(C)C`, the displacement is 20.3%.
As for `COC(=O)c1ccc(/C=C2/SC(=S)N(C)C2=O)cc1`, the figure is 1.3%; as for `O=C1c2ccc(Oc3ccc([N+](=O)[O-])cc3)cc2C(=O)N1c1ccc(Cl)cn1`, -5.1%.
On to `Cc1ccc(/C=C(\C#N)c2nn(-c3ccccc3)c(N)c2C#N)cc1`, for which the displacement was found to be 2.5%.
As for `NC(=O)C(=O)Nc1cccc2ccccc12`, the figure is 12.8%.
Consider `Cc1ccc(N2C(=O)c3ccccc3NC2c2cccc(F)c2)cc1` (stereo not given), for which the displacement amounted to 16.4%.
As for `O=C(Nc1ccc(Cl)cc1)Nc1ccccc1C(=O)O`, the figure is -7.5%; as for `COc1ccc(/C=C\C(=O)c2ccc([N+](=O)[O-])cc2)cc1OC`, 12.9%; as for `COc1ccc(C(=O)c2c(N)c(C#N)c(C)n2-c2ccccc2)cc1`, 9.3%.
`CCOc1ccc(NCCC(=O)c2cccs2)cc1`: the displacement is -4.5%.
For `Cc1cc(C)c(C=C2C(=O)c3ccccc3C2=O)cc1C`, the displacement is -1.6%.
For the molecule `Cc1ccc(NC2=C(Cl)C(=O)N(Cc3ccccc3)C2=O)cc1C`, the displacement turned out to be 19.5%.
For `CCc1ccccc1NC(=O)C(F)(Cl)C(F)(F)F` (stereo not given) the value was -3.1%; for `CCOC(=O)c1c(NC(=O)C2CC2c2ccccc2)sc2c1CCC2` (stereo not given), -10.7%.
Take `COC(=O)C1(C(=O)OC)C(c2ccccc2)C1(C(=O)OC)C(=O)OC`: the displacement was -6.4%.
For `Cc1nnc(SCC(=O)Nc2nc3ccccc3s2)s1` the value was -6.5%.
Consider `C=CCOc1cccc(/C=N/NC(=O)C(=O)Nc2ccc(OC)cc2OC)c1`, for which the displacement was found to be 9.2%.
Take `CCc1ccccc1NC(=O)CN(c1ccc(C(C)C)cc1)S(=O)(=O)c1ccccc1`: the displacement stood at 1.4%.
In the case of `O=C(NNC(=S)Nc1ccccc1)c1cccnc1`, the displacement was -28%.
As for `Nc1nnnn1Cc1nc2ccccc2[nH]1`, the figure is -6.5%; as for `COc1ccc(C(=O)N/C(=C\c2cccc([N+](=O)[O-])c2)C(=O)NCC(C)C)cc1`, 5.9%; as for `COc1ccc(Br)cc1/C=N/Nc1nc(N2CCOCC2)nc(N2CCOCC2)n1`, 7.1%.
As for `O=[N+]([O-])c1ccc(C=Nc2ccc(Br)cc2)o1`, the figure is -7.9%.
As for `COc1cccc(N(CC(=O)N2CCOCC2)S(=O)(=O)c2ccccc2)c1`, the figure is 9.8%; as for `COC(=O)CN(c1ccc(OC)c(Cl)c1)S(C)(=O)=O`, 9.3%.
As for `Cc1cc(C)n2nc(-c3ccc(F)cc3)cc2n1`, the displacement stood at 6.7%.
As for `CC1=C/C(=N/S(=O)(=O)c2ccc(C)cc2)C=C(Cl)C1=O`, the figure is 15.4%; as for `O=C(CP(=O)(c1ccccc1)c1ccccc1)N1CCCCC1`, 6.9%; as for `CC(=O)Oc1ccc2c(C(F)(F)F)cc(=O)oc2c1`, 22.7%.
Regarding `Cc1ccc(/C=C(/C#N)C(=O)Nc2cccc(Br)c2)o1`, the displacement is -37.3%.
As for `NC(=O)c1ccc(C(=O)N(C2CCCCC2)C2CCCCC2)cc1`, the figure is -13%.
For `CCOC(=O)c1cccc(NC(=O)c2ccc(OC)cc2)c1` the value was 11.1%.
`COc1ccc(C(=O)Nc2ccc(Cl)cc2C)cc1`: the displacement is -7.7%.
As for `c1ccc(Nc2nc(-c3cccs3)cs2)nc1`, the displacement is -16.5%.
Regarding `O=C(N/N=C/c1c[nH]c2ccccc12)c1ccccc1[N+](=O)[O-]`, the displacement is -9%.
With `COc1ccc(N=Cc2c(O)n(-c3ccccc3)c(=O)[nH]c2=O)cc1Cl`, the displacement is 113%.
